Test results taken from patent US20230062800A1 (DENALI THERAPEUTICS, published 2023).

Target: T1, human apical domain TfR (human, UniProt P02786 198-378)
T1 construct: The SPR analyte is printed only as "human apical domain TfR"; also called human TfR; human transferrin receptor 1 apical domain
Assay: Biacore SPR as in Example 2; steady-state fit
Method: To determine whether SGSH-Fc fusion proteins with engineered TfR binding affects the ability of the modified Fc domain to interact with human TfR, the affinity of ETV: SGSH Bizyme Structure 1 (Example 1) for human TfR was assessed using a Biacore™ surface plasmon resonance assay. Biacore™ Series S CM5 sensor chips were immobilized with anti-human Fab (human Fab capture kit from GE Healthcare). 5 μg/mL of the SGSH-Fc fusion proteins were captured for 1 minute on each flow cell and serial 3-fold dilutions of human apical domain TfR were injected at a flow rate of 30 μL/min. Each sample was analyzed with a 3-minute association and a 3-minute dissociation. After each injection, the chip was regenerated using 10 mM glycine-HCl (pH 2.1). Binding response was corrected by subtracting the RU from a flow cell capturing an irrelevant IgG at similar density. Steady-state affinities were obtained by fitting the response at equilibrium against the concentration using Biacore™ T200 Evaluation Software v3.1. Biacore™ analysis established that SGSH-Fc fusion proteins with a TfR-binding site engineered into the Fc region bind to human TfR.

human apical domain TfR, sequence (P02786 198-378 limits assumed): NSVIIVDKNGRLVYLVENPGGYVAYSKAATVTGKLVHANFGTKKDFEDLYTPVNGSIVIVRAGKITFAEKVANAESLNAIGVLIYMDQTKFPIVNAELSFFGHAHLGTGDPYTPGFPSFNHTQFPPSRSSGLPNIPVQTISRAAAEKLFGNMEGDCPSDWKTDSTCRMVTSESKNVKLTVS

B1: ETV:SGSH Bizyme Structure 1 (Fc fusion)
chain 1: RPRNALLLLADDGGFESGAYNNSAIATPHLDALARRSLLFRNAFTSVSSCSPSRASLLTGLPQHQNGMYGLHQDVHHFNSFDKVRSLPLLLSQAGVRTGIIGKKHVGPETVYPFDFAYTEENGSVLQVGRNITRIKLLVRKFLQTQDDRPFFLYVAFHDPHRCGHSQPQYGTFCEKFGNGESGMGRIPDWTPQAYDPLDVLVPYFVPNTPAARADLAAQYTTVGRMDQGVGLVLQELRDAGVLNDTLVIFTSDNGIPFPSGRTNLYWPGTAEPLLVSSPEHPKRWGQVSEAYVSLLDLTPTILDWFSIPYPSYAIFGSKTIHLTGRSLLPALEAEPLWATVFGSQSHHEVTMSYPMRSVQHRHFRLVHNLNFKMPFPIDQDFYVSPTFQDLLNRTTAGQPTGWYKDLRHYYYRARWELYDRSRDPHETQNLATDPRFAQLLEMLRDQLAKWQWETHDPWVCAPDGVLEEKLSPQCQPLHNELGGGGS[in this place human IgG1 Fc with changes]
chain 2: RPRNALLLLADDGGFESGAYNNSAIATPHLDALARRSLLFRNAFTSVSSCSPSRASLLTGLPQHQNGMYGLHQDVHHFNSFDKVRSLPLLLSQAGVRTGIIGKKHVGPETVYPFDFAYTEENGSVLQVGRNITRIKLLVRKFLQTQDDRPFFLYVAFHDPHRCGHSQPQYGTFCEKFGNGESGMGRIPDWTPQAYDPLDVLVPYFVPNTPAARADLAAQYTTVGRMDQGVGLVLQELRDAGVLNDTLVIFTSDNGIPFPSGRTNLYWPGTAEPLLVSSPEHPKRWGQVSEAYVSLLDLTPTILDWFSIPYPSYAIFGSKTIHLTGRSLLPALEAEPLWATVFGSQSHHEVTMSYPMRSVQHRHFRLVHNLNFKMPFPIDQDFYVSPTFQDLLNRTTAGQPTGWYKDLRHYYYRARWELYDRSRDPHETQNLATDPRFAQLLEMLRDQLAKWQWETHDPWVCAPDGVLEEKLSPQCQPLHNELGGGGSDKTHTCPPCPAPEAAGGPSVFLFPPKPKDTLMISRTPEVTCVVVDVSHEDPEVKFNWYVDGVEVHNAKTKPREEQYNSTYRVVSVLTVLHQDWLNGKEYKCKVSNKALPAPIEKTISKAKGQPREPQVYTLPPSRDELTKNQVSLWCLVKGFYPSDIAVEWESYGTEWANYKTTPPVLDSDGSFFLYSKLTVTKEEWQQGFVFSCSVMHEALHNHYTQKSLSLSPGK
modifications: SGSH cysteine at position 70 (full-length SGSH numbering) largely converted to formylglycine (fGly 98% in Table 2); the fGly form is SEQ ID NO:91; SGSH cysteine at position 70 (full-length SGSH numbering) largely converted to formylglycine (fGly 98% in Table 2); the fGly form is SEQ ID NO:63
notes: Heterodimer of two SGSH-Fc fusion polypeptides; The preparation may be a mixture of processed and unprocessed forms; also called first "N-terminal bizyme" SGSH-Fc fusion protein
Kd: 290 nM
